# From PubChem BioAssay AID686979 (National Center for Advancing Translational Sciences (NCATS), 2013)
# About 50,000 (12%) of roughly 420,000 compounds were called active. This list was built around the results that the source calls inconclusive (neither active nor inactive); the mix of calls is not that of the screen. Calls come from the whole dose curve; as a rule, active = well fitted inhibition curve with a large enough effect; inconclusive = small, poorly fitted or top-dose-only effect; inactive = flat fitted curve, though single readings scatter. No potency is given beside an inconclusive call; the fits are too rough.
# Experiment: qHTS for Inhibitors of human tyrosyl-DNA phosphodiesterase 1 (TDP1): qHTS in cells in presence of CPT; note: nearly all actives have a fitted effect of over 55% in size
# Conditions: chicken DT40 Tdp1-/-;hTDP1 cells + 20 nM CPT, ATP luminescence, 48 h; activity change, negative = growth inhibition: at 46.2 µM (top of the series)
# How it was run: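 Chicken DT40 Tdp1-/- cells stably complemented with human TDP1 were seeded at 400 cells/well in medium containing 20 nM camptothecin, exposed to pin-transferred compounds, and grown at 37 °C for at least 48 hr. Viability was read as ATP luminescence.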
# % is set by controls: 0 for no effect and ±100 for the full control effect; potency is the fitted concentration of half-maximal effect; tags give direction and shape of the fitted curve.
SMILES,Potency,"activity change, negative = growth inhibition"
CCCCCC1CCC(c2n[nH]c(=S)n2C)CC1 (configuration not stated),active: 7.31 µM,
O=S(=O)(c1cccc(F)c1)N1CCN(Cc2cc3c(cc2Br)OCCO3)CC1,"inconclusive [inhibitor, partial curve]",
COc1cccc(N2CCN(S(=O)(=O)c3ccc4c(c3)CCCN4C(C)=O)CC2)c1,,inactive: -26.4%
COCCNc1nc2c(c(=O)n(C)c(=O)n2C)n1Cc1cccc(C)c1,active: 6.51 µM,
COc1ccc(Cl)cc1NC(=O)c1cc(C)nn1-c1ccccc1,"inconclusive [inhibitor, single point]",
FC(F)(F)c1ccccc1-c1nccc(NCc2ccccc2)n1,"inconclusive [inhibitor, single point]",
COc1ccc(-c2nnc(N3CCC(C)CC3)c3ccccc23)cc1,"inconclusive [inhibitor, single point]",
COc1ccc(CN2C(=O)C(CC(=O)NCc3cccc4ccccc34)CC(C(=O)N3CCOCC3)=C2C)cc1 (configuration not stated),,inactive: -12.7%
CN(C)c1ccc(CNC(=O)CCCn2ccc3cc(S(=O)(=O)N4CCCC4)ccc32)cc1,"inconclusive [inhibitor, single point]",
CC(NC(=S)NC1CCCCC1)c1ccccc1 (configuration not stated),"inconclusive [inhibitor, single point]",
Cc1ccc(C(=O)OCC(=O)NCc2cccs2)cc1S(=O)(=O)N1CCOCC1,,inactive: -15%
COc1ccccc1N1CCN(C(=O)c2cn(C)c3ccc(S(=O)(=O)N4CCOCC4)cc3c2=O)CC1,inactive,
Cc1nn(C(C)C(=O)NC2CCC(C)CC2)c(=O)c2cc3sccc3n12 (configuration not stated),active: 14.6 µM,
C/C(=N\NC(=O)Cc1cccn1C)c1ccc2ccccc2c1,"inconclusive [inhibitor, single point]",
COc1ccc(CCN2CCC(CNC(=O)c3cnn(-c4ccccc4)c3C3CCN(C(=O)OC(C)(C)C)CC3)CC2)cc1,active: 11.6 µM,
C=CCc1cccc(/C=N/NC(=O)c2ccc3nc[nH]c3c2)c1O,active: 9.2 µM,
CCN1C(=O)[C@H]2[C@@H](c3ccc(C)cc3)N3C(=O)N(c4ccc(C(F)(F)F)cc4)C(=O)[C@@]3(CC(C)C)[C@H]2C1=O,"inconclusive [inhibitor, single point]",
CCOc1ccc(C2C(C(=O)Nc3ccc(Cl)cc3)=C(C)Nc3nc(C(F)(F)F)nn32)cc1 (configuration not stated),active: 13 µM,
CSc1ccc(N/N=C(/C#N)S(=O)(=O)C(C)(C)C)cc1,"inconclusive [inhibitor, single point]",
COc1ccc(OC)c(S(=O)(=O)N2CC=C(c3c(C)n(CC(=O)N4CCCC4)c4ccccc34)CC2)c1,active: 16.4 µM,
CCOC(=O)C1(Cc2ccccc2C(F)(F)F)CCN(C2CCN(C(C)C)CC2)CC1,active: 23.1 µM,
Cc1c(C(c2cc3c(cc2Br)OCO3)c2c(C)n(C)n(-c3ccccc3)c2=O)c(=O)n(-c2ccccc2)n1C,,inactive: -8.67%
CCCCNC(=O)[C@]1(C)CCC[C@@]2(C)C3CC[C@@]4(C)C[C@]3(CCC21)CC4=O (some centres not stated),,inactive: -29.2%
C=C[C@@H]1c2ccccc2N(S(=O)(=O)c2ccc(C)cc2)[C@H](c2ccc(OC(C)=O)cc2)C1(C#N)C#N,active: 15.8 µM,

SMILES,Potency,"activity change, negative = growth inhibition"
CN1CCN(c2ccc(Cl)cc2NC(=O)c2ccc(S(=O)(=O)N3CCCCCC3)cc2)CC1,"inconclusive [inhibitor, single point]",
O=S(=O)(NCCN1CCOCC1)c1ccc(Cl)c(Cl)c1,,inactive: -7%
O=S(=O)(c1ccc(Cl)cc1)c1nnn2c1nc(N1CCCCC1)c1sccc12,active: 20.6 µM,
CCCCCCCCCC(=O)N/N=C/c1ccc(C)s1,"inconclusive [inhibitor, single point]",
C=CCN1C(=O)CSc2ccc(C(=O)NCCC3=CCCCC3)cc21,"inconclusive [inhibitor, single point]",
O=C(CSc1nc(O)c(Cc2ccccc2)c(=O)[nH]1)c1ccccc1,"inconclusive [inhibitor, full curve]",
Cc1ccc(NC(=O)N2CCCC2C(=O)NCCc2ccccc2)cc1 (configuration not stated),,inactive: 5.91%
COc1ccc(CNC(=O)C2CSC(=O)C2)cc1 (configuration not stated),"inconclusive [inhibitor, single point]",
O=C(Cc1ccccc1)Nc1ccccc1C(=O)O,"inconclusive [inhibitor, single point]",
COCCOC(=O)c1cc(C(=O)c2cc(Cl)ccc2O)coc1=N,,inactive: 3%
COc1ccccc1OCc1ccc(C(=O)N2N=C(C(F)F)CC2(O)C(F)F)o1 (configuration not stated),,inactive: 3.85%
COc1c2c(nc3occc13)C(CC=C(C)C)(OC)C(=O)C=C2 (configuration not stated),"inconclusive [inhibitor, single point]",
CC1CCN(S(=O)(=O)c2cn(CC(=O)N3CCN(c4cccc(C(F)(F)F)c4)CC3)cn2)CC1,active: 14.6 µM,
O=C(NNc1c2ccccc2nc2ccccc12)c1ccc(O)cc1,active: 13 µM,
O=C(Nc1ccc2c(c1)C(=O)N(CC1CCCO1)C2=O)c1ccc(Cl)c(Cl)c1 (configuration not stated),,inactive: -14.7%
Cc1ccc2c(c1)-c1c(c(C(=O)N3CCN(c4cc(Cl)ccc4C)CC3)nn1C)CS2,"inconclusive [inhibitor, single point]",
O=C(C[n+]1ccccc1)N/N=C/c1ccc(F)cc1,,inactive: -0.681%
COc1ccc(NC(=O)COc2cccc3c2CCN(Cc2cccnc2)C3=O)cc1,"inconclusive [inhibitor, single point]",
COCc1cc(=O)n2[nH]c(C(F)(F)F)nc2n1,,inactive: -4.55%
CN(Cc1c(F)cccc1Cl)C(=O)CNC(=O)c1ccc2c(c1)OCO2,,inactive: -12.9%
COc1ccc(-c2nc3sc(CCNC(=O)c4ccccc4C)c(C)n3n2)cc1,"inconclusive [inhibitor, single point]",
Cc1cc(C)n(CC(O)CN(c2ccccc2)S(=O)(=O)c2ccc3ccccc3c2)n1 (configuration not stated),"inconclusive [inhibitor, partial curve, poor fit]",
COc1cccc(S(=O)(=O)Nc2ccc3c(c2)OCCO3)c1,"inconclusive [inhibitor, single point]",
